# Assay results published in PubChem BioAssay (NCATS).
# The shares of active, inactive and inconclusive entries below differ from those in the screen. For some of these results: A potency beside an inconclusive call is a rough fit, not a confirmed value. Activity calls are given as the source filed them. Unless noted, calls follow the shape of the dose curve; as a rule, active = well fitted curve in the direction sought with a large enough effect; inconclusive = small, poorly fitted or top-dose-only effect, or another doubt; inactive = no such curve, though single readings can be large; an effect the other way counts as inactive or inconclusive.
# Columns and labels:
# [1] = Cell Viability - BJ (AID 421; calls by dose curve;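 also: potency is read from the fitted curve at half-maximal effect; cells exposed to compound for 40 hours at 37 °C before readout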); settings: BJ fibroblast viability, qHTS
# Procedure, shortened: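 Luminescent ATP signal (CellTiter-Glo, 20 min at room temperature) served as the read-out of viable BJ cells after 40 hours of compound treatment. Responses were scaled between DMSO and 100 uM tamoxifen, and AC50 values were obtained by Hill modeling.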
# [2] = target: Mitogen-activated protein kinase 10 (Mus musculus) (UniProt Q61831); assay: JNK3 AlphaScreen Assay (AID 530; active = well fitted curve in either direction with a large enough effect, not every such curve was filed as active; inconclusive = small, poorly fitted or top-dose-only effect, or another doubt;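 also: kinase came from lysate of stimulated human HepG2 cells; signal reports phosphorylation of biotinylated GST-cJun 1-79 at Ser73 with 10 µM ATP; potency is read from the fitted curve at half-maximal effect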); settings: JNK3 lysate, c-Jun phosphorylation; activity change, negative = inhibition: at 57.1 µM (top of the series)
# Procedure, shortened: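 JNK3 came from HepG2 lysates pre-activated with IL-1beta and TNF-alpha and phosphorylated biotinylated GST-cJun (1-79) at 10 uM ATP, pH 7.6, room temperature. Compounds were titrated. AlphaScreen signal used anti-phospho-cJun (Ser73) antibody.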
# [3] = Cell Viability - NIH 3T3 (AID 541); settings: NIH 3T3 cell viability, qHTS; activity change, negative = cytotoxicity: at 92.2 µM (top of the series);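 also: plate controls were DMSO alone for no effect and tamoxifen positive control for full effect; nearly all actives have a fitted effect of over 25% in size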
# Procedure, shortened: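 NIH 3T3 mouse embryo fibroblasts (1000 cells/well) were plated in complete medium and treated with compound for 40 hr at 37 °C. Viability was read as intracellular ATP by CellTiter-Glo luminescence; AC50 values came from Hill-equation fits of concentration-response data.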
# [4] = Cell Viability - HUV-EC-C (AID 542); also: potency is read from the fitted curve at half-maximal effect; nearly all actives have a fitted effect of over 35% in size
# Procedure, shortened: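 HUV-EC-C normal human vascular endothelial cells, 1000 cells/well, pre-incubated 5 hr at 37 °C, then exposed to compounds for 40 hr at 37 °C in complete medium. Viability measured as intracellular ATP by CellTiter-Glo luminescence; AC50 from Hill fits.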
# [5] = Cell Viability - H-4-II-E (AID 543); also: potency is read from the fitted curve at half-maximal effect; nearly all actives have a fitted effect of over 35% in size
# Procedure, shortened: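 Rat hepatoma H-4-II-E cells (1500/well) were plated, incubated 5 hr at 37 °C, then exposed to compounds for 40 hr at 37 °C. Cellular ATP was read by CellTiter-Glo luminescence; AC50 came from Hill-equation fits of concentration-response data.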
# [6] = Cell Viability - Mesenchymal (AID 546); settings: mesenchymal cells viability, qHTS; activity change, negative = cytotoxicity: at 91.7 µM (top of the series);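 also: cells exposed to compound for 40 hours before reading; 0% = DMSO only and -100% = 100 µM tamoxifen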
# Procedure, shortened: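 Normal human renal glomerulus-derived kidney mesenchymal cells, 1000 per well in complete medium, were treated with compounds for 40 hr at 37 °C. Viability was read as intracellular ATP by CellTiter-Glo luminescence; AC50 values came from Hill-equation fits of qHTS concentration-response data.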
# [7] = Cell Viability - LYMP2-001 (AID 921); also: potency is read from the fitted curve at half-maximal effect; nearly all actives have a fitted effect of over 70% in size
# Procedure, shortened: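 Cellular ATP loss read by luciferase luminescence after 24 h compound exposure at 37 C in complete medium. LYMP2-001 lymphoblastoid cells, 2500/well; qHTS concentration-response data fitted with Hill equation for AC50.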
# [8] = MultiTox-Fluor Cytotoxicity Assay - LYMP1-001 - Live Cells (AID 947); also: potency is read from the fitted curve at half-maximal effect
# [9] = MultiTox-Fluor Cytotoxicity Assay - LYMP1-002 - Live Cells (AID 955); also: potency is read from the fitted curve at half-maximal effect
# Procedure, shortened: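 Human lymphoblastoid LYMP1-002 cells, 2500/well in complete medium, rested 5 hr at 37 C, then exposed to compounds for 16 hr at 37 C. Live-cell protease cleavage of GF-AFC read by fluorescence (Ex/Em 405/510) after 60 min at room temperature; AC50 from Hill fits.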
# [10] = MultiTox-Fluor Cytotoxicity Assay - LYMP1-003 - Dead Cells (AID 961); also: potency is read from the fitted curve at half-maximal effect; nearly all actives have a fitted effect of over 70% in size
# Procedure, shortened: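 Human lymphoblastoid LYMP1-003 cells (2500/well) were treated with compounds for 16 hr at 37 C in complete medium. Dead-cell protease release was read by bis-AAF-R110 fluorescence (Ex/Em 485/520). AC50 came from Hill fits, normalized to DMSO and 15 uM tetraoctylammonium bromide.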
# [11] = MultiTox-Fluor Cytotoxicity Assay - LYMP1-003 - Live Cells (AID 962); also: potency is read from the fitted curve at half-maximal effect
# Procedure, shortened: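 LYMP1-003 human lymphoblastoid cells (2500/well) in complete medium were preincubated 5 hr at 37 C, then exposed to compounds for 16 hr at 37 C. Live-cell protease cleavage of GF-AFC read by fluorescence (Ex/Em 405/510); AC50 from Hill fits.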
# [12] = Cell Viability - LYMP1-003 - Assay at 24 hr (AID 963); also: potency is read from the fitted curve at half-maximal effect
# Procedure, shortened: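 Human lymphoblastoid LYMP1-003 cells (2500/well) were rested 5 hr at 37 C, then exposed to compounds in complete medium for 24 hr at 37 C. Cellular ATP was quantified by CellTiter-Glo luminescence, and AC50 values came from Hill fits of concentration-response data.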
# [13] = Cell Viability - LYMP1-003 - Assay at 40 hr (AID 964); also: potency is read from the fitted curve at half-maximal effect; nearly all actives have a fitted effect of over 60% in size
# Procedure, shortened: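 Human lymphoblastoid LYMP1-003 cells, 2500/well in complete medium, rested 5 hr at 37 C, then exposed to compounds for 40 hr at 37 C. Viability read as intracellular ATP by CellTiter-Glo luminescence; AC50 from Hill fits of concentration-response data.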
# [14] = Cell Viability - LYMP2-003 (AID 965);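 also: potency is read from the fitted curve at half-maximal effect; cells exposed to compounds for 24 h before reading; nearly all actives have a fitted effect of over 50% in size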
# Procedure, shortened: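 CellTiter-Glo luminescence quantified ATP loss after 24 h compound treatment of LYMP2-003 lymphoblastoid cells at 37 C. Titration series were fitted with the standard Hill equation to give AC50.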
# [15] = Cell Viability - LYMP2-004 (AID 966); also: potency is read from the fitted curve at half-maximal effect; nearly all actives have a fitted effect of over 65% in size
# Procedure, shortened: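 Human lymphoblastoid cells (2500/well) in complete medium were treated with compounds for 24 hr at 37 C, then intracellular ATP was measured by CellTiter-Glo luminescence. AC50 values came from Hill-equation fits of concentration-response data.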
# [16] = Cell Viability - LYMP2-005 (AID 967); also: potency is read from the fitted curve at half-maximal effect
# Procedure, shortened: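 LYMP2-005 human lymphoblastoid cells (2500/well) were treated with compounds for 24 h at 37 C. Intracellular ATP was then measured by CellTiter-Glo luminescence after 30 min at room temperature. AC50 values came from Hill-equation fits of qHTS concentration-response data.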
# [17] = Cell Viability - LYMP2-011 (AID 969); also: potency is read from the fitted curve at half-maximal effect; nearly all actives have a fitted effect of over 60% in size
# Procedure, shortened: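 Human lymphoblastoid cells (2500/well) were plated in complete medium, preincubated 5 hr at 37 C, then exposed to compounds for 24 hr at 37 C. Intracellular ATP was read by CellTiter-Glo luminescence, and AC50 came from Hill-equation concentration-response fits.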
# [18] = Cell Viability - LYMP2-015 (AID 971); also: potency is read from the fitted curve at half-maximal effect; nearly all actives have a fitted effect of over 55% in size
# Procedure, shortened: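 Human lymphoblastoid cells (2500/well) in complete medium were preincubated 5 hr at 37 C, then compound-treated 24 hr at 37 C. Intracellular ATP was read by CellTiter-Glo luminescence after 30 min at room temperature; AC50 came from Hill-equation concentration-response fits.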
# [19] = Cell Viability - LYMP2-019 (AID 973); also: potency is read from the fitted curve at half-maximal effect; nearly all actives have a fitted effect of over 55% in size
# Procedure, shortened: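 Human lymphoblastoid cells were seeded at 2500 cells/well, preincubated 5 hr at 37 C, then exposed to compounds for 24 hr at 37 C in complete medium. Intracellular ATP was measured by CellTiter-Glo luminescence; AC50 from Hill fits.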
# [20] = Cell Viability - LYMP2-021 (AID 974);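 also: potency is read from the fitted curve at half-maximal effect; compound exposure lasts 24 hours at 37 °C; nearly all actives have a fitted effect of over 55% in size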
# Procedure, shortened: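 Human lymphoblastoid cells (2500/well) were preincubated 5 hr at 37 C, then exposed to compounds for 24 hr at 37 C in complete medium. Intracellular ATP was read by CellTiter-Glo luminescence; AC50 came from Hill-equation fits of concentration-response data.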
# [21] = Cell Viability - LYMP2-023 (AID 975); also: potency is read from the fitted curve at half-maximal effect; nearly all actives have a fitted effect of over 55% in size
# Procedure, shortened: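 Human lymphoblastoid cells (2500/well) were preincubated 5 hr at 37 C, then exposed to compounds for 24 hr at 37 C in complete medium. Cellular ATP was read by CellTiter-Glo luminescence, and AC50 came from Hill-equation fits.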
# [22] = Cell Viability - LYMP2-002 (AID 977); settings: LYMP2-002 lymphoblastoid cell viability, qHTS; activity change, negative = cytotoxic: at 92.2 µM (top of the series); also: potency is read from the fitted curve at half-maximal effect
# Procedure, shortened: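 Luminescent ATP readout (CellTiter-Glo, 30 min room temperature) after 24 h compound exposure at 37 C of a human lymphoblastoid line, 2500 cells/well. AC50 values derived by standard Hill fitting of qHTS concentration-response data.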
# [23] = Cell Viability - LYMP2-006 (AID 978); also: potency is read from the fitted curve at half-maximal effect; nearly all actives have a fitted effect of over 60% in size
# Procedure, shortened: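 Potency values are Hill-fit AC50s for decreases in intracellular ATP (CellTiter-Glo luminescence). LYMP2-006 lymphoblastoid cells, 2500 per well, were exposed to compound in complete culture medium for 24 hr at 37 C.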
# [24] = Cell Viability - LYMP2-008 (AID 980); settings: LYMP2-008 lymphoblastoid cell viability, qHTS; also: potency is read from the fitted curve at half-maximal effect; nearly all actives have a fitted effect of over 60% in size
# Procedure, shortened: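 Human lymphoblastoid cells (2500/well) were plated, held 5 hr at 37 C, then exposed to compounds for 24 hr at 37 C in complete medium. Intracellular ATP was read by CellTiter-Glo luminescence; AC50 from Hill-fitted concentration-response.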
# [25] = Cell Viability - LYMP2-010 (AID 981)
# Procedure, shortened: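 Human lymphoblastoid LYMP2-010 cells (2500/well) were preincubated 5 hr at 37 C, then exposed to compounds for 24 hr at 37 C in complete medium. Intracellular ATP was measured by CellTiter-Glo luminescence after 30 min at room temperature; AC50 from Hill-fitted concentration-response.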
# Tags tell the direction and shape of the fitted curve.
smiles,measurement,setting,value
Oc1ccc2cc(SSc3ccc4cc(O)ccc4c3)ccc2c1,Potency,[1],active: 49.1 µM
same,Potency,[2],"inconclusive: 15.8 µM [inhibitor, partial curve]"
same,"activity change, negative = cytotoxicity",[3],inconclusive: -49.1%
same,Potency,[4],"inconclusive: 31.6 µM [falling, single point]"
same,Potency,[5],active: 50.1 µM
same,"activity change, negative = cytotoxicity",[6],inconclusive: -53.3%
same,Potency,[7],"inconclusive: 63.1 µM [cytotoxic, partial curve, poor fit]"
same,Potency,[8],"inconclusive: 63.1 µM [cytotoxic, single point]"
same,Potency,[9],"inconclusive: 31.6 µM [cytotoxic, single point]"
same,Potency,[10],"inconclusive: 79.4 µM [cytotoxic, single point]"
same,Potency,[11],"inconclusive: 79.4 µM [cytotoxic, partial curve, poor fit]"
same,Potency,[12],active: 50.1 µM
same,Potency,[13],active: 50.1 µM
same,Potency,[14],"inconclusive: 50.1 µM [cytotoxic, partial curve, poor fit]"
same,Potency,[15],"inconclusive: 50.1 µM [cytotoxic, partial curve, poor fit]"
same,Potency,[16],"inconclusive: 39.8 µM [cytotoxic, partial curve, poor fit]"
same,Potency,[17],"inconclusive: 50.1 µM [cytotoxic, partial curve]"
same,Potency,[18],"inconclusive: 50.1 µM [cytotoxic, partial curve, poor fit]"
same,Potency,[19],"inconclusive: 39.8 µM [cytotoxic, partial curve, poor fit]"
same,Potency,[20],"inconclusive: 50.1 µM [cytotoxic, partial curve]"
same,Potency,[21],"inconclusive: 79.4 µM [cytotoxic, single point]"
same,Potency,[22],"inconclusive: 50.1 µM [cytotoxic, partial curve, poor fit]"
same,Potency,[23],active: 50.1 µM
same,Potency,[24],"inconclusive: 50.1 µM [cytotoxic, partial curve, poor fit]"
same,Potency,[25],active: 39.8 µM
